Experimental data reported in the supplement of paper PMC7826260.
The list shows a part of the results. Cleavage of a single-stranded DNA pool by Rep nickase domains was read by sequencing (1 h at 37 °C, 3 µM enzyme); the outer parts of the 90-letter strands are left off. Values are log2 of uncut reads against the no-enzyme pool; uncut sequences lie near 0, cut ones below; no hit call is given. Because reads are shares of a total, they shift together, so uncut sequences can rise above 0 when many others are cut.

What was measured:
Experiment in all cases: uncleaved DNA left, log2 of reads against the no-enzyme library (log2 ratio); higher = less cleavage (more negative = more Rep cleavage of the k-mer); sequences stand for … in CTCGTCCG…ACCGGAGA
[1] = tested on: T1, Rep nickase domain of Muscovy duck circovirus
T1 sequence (residues 1-111, tag not shown): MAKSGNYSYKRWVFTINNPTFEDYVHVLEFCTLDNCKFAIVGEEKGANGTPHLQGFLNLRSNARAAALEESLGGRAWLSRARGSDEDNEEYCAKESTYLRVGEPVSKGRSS
Protocol: (§1)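 A pool of 90-nt single-stranded DNAs with seven random bases just before the constant AC of the nick site (name = the seven bases) was cut by 3 µM recombinant His6-SUMO-tagged Rep nickase domain (300 nM DNA, 50 mM HEPES pH 8.0, 50 mM NaCl, 1 mM MnCl2, 1 h, 37 °C, three replicates). Uncut DNA was amplified and sequenced.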

[2] = tested on: T2, Rep nickase domain of banana bunchy top virus
T2 sequence (residues 1-94, tag not shown): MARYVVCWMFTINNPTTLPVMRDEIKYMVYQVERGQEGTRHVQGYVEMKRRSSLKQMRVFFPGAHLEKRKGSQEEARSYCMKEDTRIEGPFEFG
Protocol: as §1

[3] = tested on: T3, Rep nickase domain of cabbage leaf curl virus
T3 sequence (residues 1-116, tag not shown): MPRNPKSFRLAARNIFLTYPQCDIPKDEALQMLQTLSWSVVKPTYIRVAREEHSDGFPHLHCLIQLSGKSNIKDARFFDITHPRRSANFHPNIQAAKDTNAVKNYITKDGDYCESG
Protocol: as §1

[4] = tested on: T4, Rep nickase domain of chickpea chlorotic dwarf virus
T4 sequence (residues 1-124, tag not shown): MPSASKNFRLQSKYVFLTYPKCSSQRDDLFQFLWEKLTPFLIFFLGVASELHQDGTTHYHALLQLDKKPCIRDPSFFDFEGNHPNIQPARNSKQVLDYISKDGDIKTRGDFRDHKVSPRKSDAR
Protocol: as §1

[5] = tested on: T5, Rep nickase domain of faba bean necrotic yellows virus
T5 sequence (residues 1-98, tag not shown): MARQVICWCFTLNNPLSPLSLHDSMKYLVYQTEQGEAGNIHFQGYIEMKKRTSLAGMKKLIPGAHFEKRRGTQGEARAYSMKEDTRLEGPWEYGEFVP
Protocol: as §1

[6] = tested on: T6, Rep nickase domain of maize striate mosaic virus
T6 sequence (residues 1-117, tag not shown): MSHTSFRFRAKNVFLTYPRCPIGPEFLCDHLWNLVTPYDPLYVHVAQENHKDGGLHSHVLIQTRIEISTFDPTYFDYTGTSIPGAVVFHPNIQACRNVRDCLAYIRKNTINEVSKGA
Protocol: as §1

[7] = tested on: T7, Rep nickase domain of porcine circovirus 2
T7 sequence (residues 2-116, tag not shown): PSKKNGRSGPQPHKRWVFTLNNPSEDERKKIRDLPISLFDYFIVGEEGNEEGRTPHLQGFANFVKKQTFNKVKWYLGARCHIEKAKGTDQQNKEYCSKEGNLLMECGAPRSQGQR
Protocol: as §1

[8] = tested on: T8, Rep nickase domain of tomato golden mosaic virus
T8 sequence (residues 1-124, tag not shown): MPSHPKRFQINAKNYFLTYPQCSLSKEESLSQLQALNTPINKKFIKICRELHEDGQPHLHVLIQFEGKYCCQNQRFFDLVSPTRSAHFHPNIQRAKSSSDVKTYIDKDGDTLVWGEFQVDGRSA
Protocol: as §1

[9] = tested on: T9, Rep nickase domain of tomato yellow leaf curl virus
T9 sequence (residues 1-136, tag not shown): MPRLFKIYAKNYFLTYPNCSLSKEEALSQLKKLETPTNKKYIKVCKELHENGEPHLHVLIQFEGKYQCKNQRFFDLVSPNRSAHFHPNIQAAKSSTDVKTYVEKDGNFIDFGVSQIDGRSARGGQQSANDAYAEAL
Protocol: as §1

[10] = tested on: T10, Rep nickase domain of wheat dwarf virus
T10 sequence (residues 1-137, tag not shown): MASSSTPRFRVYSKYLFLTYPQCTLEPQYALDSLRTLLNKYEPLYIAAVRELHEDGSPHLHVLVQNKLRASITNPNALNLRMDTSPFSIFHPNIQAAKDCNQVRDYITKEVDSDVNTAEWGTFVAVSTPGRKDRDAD
Protocol: as §1

Sequence | uncleaved DNA left (log2) [1] | uncleaved DNA left (log2) [2] | uncleaved DNA left (log2) [3] | uncleaved DNA left (log2) [4] | uncleaved DNA left (log2) [5] | uncleaved DNA left (log2) [6] | uncleaved DNA left (log2) [7] | uncleaved DNA left (log2) [8] | uncleaved DNA left (log2) [9] | uncleaved DNA left (log2) [10]
AGCCGAG | -0.0119 | 0.0701 | 0.376 | 0.976 | -0.0542 | 0.2 | 0.104 | 0.157 | 0.0618 | 0.0428
TTACCTG | -0.179 | -0.203 | -0.211 | -1.56 | -0.164 | 0.413 | -0.626 | -0.228 | -0.176 | -0.198
AGGACAT | -0.0322 | 0.0376 | 0.876 | 2.24 | -0.0666 | 2.33 | 0.2 | -0.0322 | -0.053 | 0.157
AGAACCT | -0.0128 | 0.0174 | 0.694 | 1.46 | 0.0555 | 2 | -0.0616 | -0.0367 | 0.0535 | 0.228
AAACTCC | -0.0278 | -0.0281 | 0.0689 | -0.187 | 0.0894 | 0.718 | 0.156 | 0.0384 | 0.0399 | 0.142
CTACGCG | 0.0284 | 0.137 | -0.815 | -0.361 | 0.1 | -0.684 | 0.224 | 0.11 | 0.144 | 0.0392
GACAGTT | 0.00216 | -0.104 | 0.4 | -0.215 | -0.0353 | 1.32 | -1.06 | -0.113 | -0.0947 | 0.0657
AAGTTGT | -0.131 | -0.159 | 0.148 | 0.139 | -0.0345 | 0.616 | -3.8 | 0.0808 | -0.0943 | -0.0921
ATGTTTA | -0.0665 | -0.207 | -0.319 | -1.81 | -0.119 | -0.61 | -0.547 | -0.000529 | -0.0913 | -0.195
GCGCTCT | -0.0416 | 0.0136 | -0.0251 | -0.627 | 0.00886 | 0.101 | -0.0817 | 0.0263 | -0.0359 | 0.0853
TGCCGGC | 0.0368 | 0.0376 | 0.098 | 0.0812 | 0.0829 | -0.0346 | 0.0121 | 0.0256 | 0.0319 | -0.0793
CACTTTG | -0.117 | -0.0659 | -0.704 | -0.753 | 0.008 | -1.15 | -0.142 | -0.116 | -0.197 | -0.156
TCCTTCG | 0.0503 | -0.0543 | -0.731 | -0.181 | 0.0153 | -1.07 | 0.047 | -0.0723 | -0.122 | -0.0923
AAAGTTC | 0.122 | -0.0458 | -0.164 | -2.17 | 0.0177 | -0.528 | -0.0816 | -0.0193 | -0.00749 | -0.281
TACCGAC | -0.00844 | -0.0806 | 0.0687 | -0.0113 | 0.0814 | -0.528 | 0.136 | 0.0636 | -0.0117 | -0.04
CTCTGGG | -0.0115 | 0.0262 | -0.529 | -0.472 | 0.0423 | -0.938 | 0.0304 | 0.0879 | 0.064 | -0.142
CAGTGCT | -0.373 | -2.12 | -0.994 | -1.92 | -1.42 | -1.18 | -3.98 | -0.168 | -0.0742 | -0.111
GCTACAA | -0.0383 | 0.108 | 0.23 | 0.29 | -0.022 | 0.512 | 0.125 | 0.0831 | 0.0913 | 0.156
ACACAAC | -0.0029 | 0.042 | -0.153 | -1.78 | 0.054 | -0.81 | 0.167 | 0.167 | -0.104 | 0.0556
CATAAAC | 0.0277 | -0.083 | -0.0509 | -0.648 | 0.0083 | -0.984 | 0.093 | -0.0425 | -0.0841 | 0.0337
TACCATC | 0.105 | -0.0495 | -0.211 | -1.38 | 0.025 | -0.88 | -0.577 | -0.0551 | -0.0116 | 0.036
GGTGACG | 0.0979 | 0.18 | 0.657 | 1.55 | 0.0944 | 1.95 | 0.112 | 0.119 | -0.00901 | 0.127
CCATCCT | -1.28 | -0.166 | -0.301 | -2.64 | -0.115 | -0.984 | -0.961 | -0.0962 | -0.107 | -0.134
CTATACC | -0.138 | -0.0959 | -0.112 | -1.54 | -0.094 | -0.577 | -0.822 | -0.0407 | -0.147 | -0.0671
AAAGAGT | 0.0761 | -4.1e-05 | 0.0688 | 0.48 | 0.0571 | 0.682 | 0.186 | 0.0558 | -0.0383 | 0.0712
TATGACA | 0.0615 | -0.0134 | 0.198 | -2.08 | 0.0293 | 0.393 | -0.0422 | -0.0376 | 0.059 | 0.101
CGCGACC | -0.205 | -0.176 | -0.16 | 0.247 | -0.109 | -0.538 | -0.159 | -0.0358 | -0.123 | -0.179
CGCGCGC | -0.0833 | -0.195 | -0.628 | -0.571 | -0.045 | -0.586 | -0.0276 | -0.167 | -0.152 | -0.155
TTTGACC | 0.0648 | 0.0458 | 0.145 | 0.254 | 0.138 | 0.23 | -0.0309 | -0.0225 | 0.0192 | 0.105
GTTTCCG | -0.0296 | -0.0825 | -0.404 | -0.597 | -0.054 | -0.785 | 0.00522 | -0.0655 | -0.0318 | -0.13
